In the RNAGym collection of RNA variant scans (doi:10.1073/pnas.2313332121):
Variants at the background level are over-represented here.

B1: TPR 5TU (parent)
chain: GGAUCUUCUCGAUCUAACAAAAAAGACAAAUCUGCCACAAAGCUUGAGAGCAUCUUCGGAUGCAGAGGCGGCAGCCUUCGGUGGCGCGAUAGCGCCAACGUUCUCAACUAUGACACGCAAAACGCGUGCUCCGUUGAAUGGAGUUUAUCAUG

Variants of: B1
Experiment: polymerase ribozyme fitness, log enrichment relative to wild type (log ratio); higher = more active; in vitro selection for triplet polymerase activity
In short: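 Frozen incubation at −7 °C formed the core of a single, triplicate in vitro selection round applied to PCR-built, transcribed mutant libraries of each subunit of a heterodimeric triplet polymerase ribozyme. Extended constructs were gel-excised, captured with streptavidin beads and amplified by RT-PCR, and input and output libraries were Illumina-sequenced with a filter of ≥10 input reads and ≥1 read per output. Fitness is the logarithm of genotype enrichment relative to wild-type enrichment, with inverse-variance-weighted replicate averaging, and the logarithm is base 2.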

Polymerase ribozyme fitness (log ratio), ≤ -4.2:
GGAUCUUCUCGAUCUAACAAAACAGACAAAUCUUCCUCAAAGCUUGAGAGCAUCAUCGGAAGCAGAGGCGGCAGCGUUCGGUGGCGCGAUAGGGCCAACGUUCUCAACUAUUACACGCAAAACGCGUGCUCCGUUGAAUGGAGUUUAUGAUG [A23C G34U A37U U55A U61A C76G C93G G112U C149G]
GGAUCUUCUCGAUCUAACAAAACAGACAAAUCUUCCACAAAGCUUGAGAGCAUCUUCGCAUGCAGAGGCCGCAGCCUUCGGUGGCGUGAUAGCGCCAACGUUCUCAACUAUGACACACAAAACGCGUGCUUCGUUGAAUGGAGUUUAUCAUG [A23C G34U G59C G70C C87U G117A C131U]
GGAUCUUCUCGAUCUAACAAAACAGACAAAUCUGCCACAAAGCUUCGGAGCAUCUUCGGAUGCAGAGGCGGCAGCCUUCGGUGUCGAGAUAGUGCCAACGUUCUCAACGAUGACACGCAAAACGCGUGCUCCGUUGAAUGGAGUUUAUCAUG [A23C G46C A47G G84U C87A C93U U109G]
GGAUCUUCUCGAUCUAACAAAACAGACAAAUCUGCCACAAAGCUUGAAAGCAUCUUCGGAUGCAGAGGCGGCAGCCUUCGGUGGCGCGAUAGAGCCAACGUUGUCAACUAUGACACGCAAAACGCGUGCUCCGUUGAAUGAAGUUUAUCAUG [A23C G48A C93A C103G G141A]
GGAUCUUCUCGAUCUAACAAAACAGACAAAUCUGCCACAAAGCUUGAGAUCAUCUUCGGAUGCAGAGGCGGCAGCCUUCGGUGGCGCGAUCGCGGCAACGUUCUGAAUUAUGACACGCAAAACGCGUGCUCCGUUGAAUGGAGUUUAUCAUG [A23C G50U A91C C95G C105G C108U]
GGAUCUUCUCGAUCUAACAAAACAGACAAAUCUGCCACAAAGCUUGAGAGCAUCUUCGGAUCCAGAGGCGGCAGCCUUCGGUGGGGCGAUAGCGCCAACGUUCUCAACUAUGACACGCAAAACGCGUGCUCCGAUGAAUGGAGUUUACCAUG [A23C G62C C85G U134A U148C]
GGAUCUUCUCGAUCUAACAAAACAGACAAAUCUGCCACAAAGCUUGAGAGCAUCUUCGGAUCCAGAGGCGGCAGCCUUCGGCGGCGCGAUAGCGCCAACGUUCUCAACUAUGACACGCAAAACGCGUGCUCCGUUGAAUGGAGUUUAUCAUG [A23C G62C U82C]
GGAUCUUCUCGAUCUAACAAAACAGACAAAUCUGCCACAAAGCUUGAGAGCAUCUUCGGAUGCAGAGGCGGCAGCCUUCGGUGUAGCGAUAGGGCCAACGUUCUCAACUAUGACACGCAAAACACGUGCUCCGUUGAAUGGAGUUUAUCAUG [A23C G84U C85A C93G G124A]
GGAUCUUCUCGAUCUAACAAAACAGACAAAACUGCCACAAAGCUUGAGAGCAUCUUCGGAUGCAGAGGCGGCAGCCUUCGGUGGGGCGAUAGCGCCAACGUUCUCAACUAUGACACGCAAAACGCGUGCUCCGUUGAAUGGAGUUUAUCAUG [A23C U31A C85G]
GGAUCUUCUCGAUCUAACAAAACAGACAAAUCAGCCACAAGGCUAGAGAGCAUCUUCGGAUGCAGAGGCGGCAGCCUUCGGUGGCGGGAUAGCGCCAACGUUGUCAACUAUGACACGCAAAACGCGUGCUCCGUUGAAUGGAGUUUAUCAUG [A23C U33A A41G U45A C87G C103G]
GGAUCUUCUCGAUCUAACAAAACAGACAAAUCUGCCACAAAGCAAGAGAGCAUCUUCGGAAGCAGAGGCGGCAGCCUUCGGUGACGCGAUAGCGCCAACGUUCUCCACUAUGACACGCAAAACGCGUGUUCCGGUGAAUGGAGUUUAUCAUG [A23C U44A U45A U61A G84A A106C C129U U134G]
GGAUCUUCUCGAUCUAACAAAACAGACAAAUCUGCCACAAAGCGUGAGAGCAUCUUCGGAUGCAGAGGCGGCAGCCUUCGCUGGCGCGAUGGAGCCAACGUUAUCAACUAUGACACACAAAACGCGUGCUCCGUUGAAUGGAGUUUAUCAUC [A23C U44G G81C A91G C93A C103A G117A G152C]
GGAUCUUCUCGAUCUAACAAAACAGACAAAUCUGCCACAAAGCUUGAGAGCAGCUUCGGAUGCAGAGGCGGCAGCCUCCGGUGGCGCGAUAACGCCAACUUUCUCAUCUAUGACACGCAAAACGCGUGCUCCCUUGAAUUGAGUUUAUCAUG [A23C U53G U78C G92A G100U A107U G133C G140U]
GGAUCUUCUCGAUCUAACAAAACAGACAAAUCUGCCACAAAGCUUGAGAGCAUCAUCGGAUGCAGAGGCGGCAGCCUUCGGCGGCGCGAUAGCGCCAACGUUCUCAACUAUGACACGCAAAACGCGUGCUCCGUUUAAUGGAGUUUAUCAUG [A23C U55A U82C G136U]
GGAUCUUCUCGAUCUAACAAAACAGACAAAUCUGCCACAAAGCUUGAGAGCAUCUUCGGAAGCAGAGGCGGCAGCCUUCGGCGGCGCGAUAGCGCCAACGUUCUCAACUAUGACACGCAAAACGCGUGCUCCGUUGAAUGGCGUUUAUCAUG [A23C U61A U82C A142C]
GGAUCUUCUCGAUCUAACAAAAGCGACAAAUGUGCCACAAAGCUUGAGAGCAUCAUCGGAUGCAGAGGCGGCAGCCUUCGGUGGCGCGCUAGCGCCAACGUUCUCGACUAUGACACGCAAAACGCGUGCUCCGUUGAAUGGAGUUUAUCAUG [A23G A24C C32G U55A A89C A106G]
GGAUCUUCUCGAUCUAACAAAAGUGACAAAUCUGCCACAAAGCUUGAGAGCGUCUUCGGAUGCAGAGGCGGCAGCCUUCGGUCGCGCGAUAGCGCCAACGUUCUCAACUAUGACACGCAAAACGCGUGCUCCGUUGAAUGGAGUUUAGCAUG [A23G A24U A52G G83C U148G]
GGAUCUUCUCGAUCUAACAAAAGAGACAGAUCUGCCACAAAGCUUUAGAGCAUCUUCGGAUGCAGAGUCGGCAGCCUUCGGUGGAGCGAUAGCGCCAACGUUCUCAACUAUGACACGCAAAACGCGUGCUCCGUUGAAUGGAGUUUAUCAUG [A23G A29G G46U G68U C85A]
GGAUCUUCUCGAUCUAACAAAAGAGACAUAUCUGCCACAAAGCUUCAGAGCAUCGUCGGAUGCAGAGGCGGCAGCCUUCGCUGGCGCGAUAGCGCCAACGUUCUCAACUAUGACACGCAAAACGCGUGCUCCGUUGAAUGGAGUUUAUCAUG [A23G A29U G46C U55G G81C]
